Source: the supplement of paper PMC11417369
± gives the standard deviation of the averaged measurements. The list shows a part of the results.

Tested on: PfAP2-LT AP2 domain (GST-tagged)
Experiment: gcPBM binding intensity (ln(normalized median fluorescence intensity)); higher = stronger DNA binding
Procedure, shortened: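 DNA-binding domains from P. falciparum, fused to GST and produced in E. coli, were put on an Agilent 4 × 180k double-stranded probe array for 1 h in 1× PBS holding 1% milk, 0.2 mg/ml BSA, 0.5% salmon testes DNA and 0.03% Triton X-100. Probes were primer-extended, 36 bp long and drawn from intergenic genomic regions, with negative controls included. After Alexa488 anti-GST antibody detection and a 488 nm scan, binding intensity was set as the highest Masliner-normalised natural-log median intensity across replicate spots of either probe orientation.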

| Sequence | gcPBM binding intensity (ln) |
| --- | --- |
| GTACAAAGGACTATACATAGAAAAATATATATATAT [XGTACX_negctrl_site164] | 9.32 ± 0.21 |
| AAAACTTTTAAAATTTTGTATTCATTCCTTCAACAA [GTGCAC_negctrl_site697] | 8.41 ± 0.5 |
| TTTATAATTCCATAATGTACAAATAAAATAAAAAAT [XGTACX_site663] | 8.62 ± 0.43 |
| TATATTCAAAATGGTACACACAATATTTAATTGTGC [CACACA_site2631] | 8.89 ± 0.42 |
| TGACATATAAAATATTCACACACAAGTTATAGTTCT [CACACA_site9209] | 9.13 ± 0.47 |
| ACATTTTCTTATAAATGTACATATATATTATTATAT [XGTACX_site4404] | 8.82 ± 0.49 |
| GTACAAAATTGACAAGTGCAAAAATTAAAAGCAAGA [GTGCAC_site9838] | 9.13 ± 0.52 |
| AAAGTATATAGGATACGTACATACATAAATAAATAA [XGTACX_site8216] | 9.04 ± 0.42 |
| ATATATATATAAATATGTACATATATTTATTTCTTT [XGTACX_site3784] | 8.8 ± 0.46 |
| GTGTGAGCACATTCGGGAGAGTTTTTTTTTTTTTTT [CACACA_negctrl_site1776] | 8.85 ± 0.37 |
| TATAAAAATAAGCACACACACAAATATAGATTTATT [CACACA_site6558] | 9.79 ± 0.3 |
| ATATATTCTATATATACATGCATATATATTATATGT [TGCATGCA_site185] | 8.89 ± 0.46 |
| GTTAAATGAAAATATGTACACACTTGAAAATTTTTA [CACACA_site2924] | 8.76 ± 0.37 |
| TGAATAAATATGCAGCGTACATAATCCTCTTAAAAT [XGTACX_site8462] | 8.85 ± 0.32 |
| ATGCAACTATATATATATATTATATGTATGAATAAT [XGTACX_negctrl_site434] | 8.97 ± 0.28 |
| TTAATAGAAATACGTGCACACTAAAGGGAAAACAAT [CACACA_site4923] | 9.32 ± 0.38 |
| ACAAGTATTAATTACACACTCAAAAAGAAAAAACAA [CACACA_site2281] | 8.85 ± 0.49 |
| AAAATACGAATATAAACATGCACCATATAGAACAAA [TGCATGCA_site925] | 9.17 ± 0.38 |
| TTTTTTTTTTTTTTTACACACTGCATACAAGAAAAA [CACACA_site5642] | 8.52 ± 0.23 |
| TAAAATAAAATAAGTAGTACATATATAATTATATAT [XGTACX_site6733] | 8.72 ± 0.49 |
| TACAAATATAGATGCACACACATATACATACCTATA [CACACA_site7094] | 9.39 ± 0.29 |
| TTTTTACAAAAAAAAAAAAAAAAAATAAAAATAAAT [CACACA_negctrl_site1738] | 8.21 ± 0.47 |
| GACAACGTTTCAATGTGTACATATTTATAATATATA [XGTACX_site2427] | 8.87 ± 0.28 |
| TATATATATATATATACATGCATTTTTGTTTGCTTA [TGCATGCA_site256] | 9.92 ± 0.13 |
